Test results taken from PubChem BioAssay AID686979 (National Center for Advancing Translational Sciences (NCATS), 2013).
Hit rate of the full screen: of about 420,000 compounds, about 50,000 (12%) were called active. The shares of active, inactive and inconclusive entries below differ from those in the screen. Calls follow the shape of the dose curve; as a rule, active = well fitted inhibition curve with a large enough effect; inconclusive = small, poorly fitted or top-dose-only effect; inactive = flat fitted curve, though single readings scatter. Potencies of inconclusive entries are left out as doubtful fits.
% is scaled to controls: 0 for no effect and ±100 for the full control effect; potency is read from the fitted curve at half-maximal effect; tags tell the direction and shape of the fitted curve.

Assay: qHTS for Inhibitors of human tyrosyl-DNA phosphodiesterase 1 (TDP1): qHTS in cells in presence of CPT; also: nearly all actives have a fitted effect of over 55% in size
Conditions: chicken DT40 Tdp1-/-;hTDP1 cells + 20 nM CPT, ATP luminescence, 48 h; activity change, negative = growth inhibition: at 46.2 µM (top of the series) unless noted
Excerpt: Human tyrosyl-DNA phosphodiesterase 1 (TDP1) is a novel repair gene, and we propose to use it as a new target for anticancer drug development. TDP1 is not an essential protein, but under treatment with topoisomerase I poison (camptothecin: CPT), TDP1 works as a critical factor for cell survival. To directly identify novel TDP1 inhibitors active in a cellular environment, we have knocked-out the Tdp1 gene in chicken DT40 cells (Tdp1-/-) and generated a complemented counterpart cells that contains a stable transfection of the human TDP1 gene (Tdp1-/-;hTDP1 cells). For the primary screen, Tdp1-/-;hTDP1 cells will be exposed to small molecules in the presence or absence of CPT, and their growth kinetics will be evaluated after 48 hours by measuring ATP activity. […] The hit compounds will then be evaluated in the presence or absence of CPT using Tdp1-/- cells. […] In tertiary assays, biochemical gel-based assays will be used to assess whether the hit compounds specifically target TDP1. To this end, we have screened this cell line against the MLSMR in two primary screens. In one screen we add CPT and in the other we screen in the absence of CPT; this AID represents the screen where CPT was present. NIH Chemical Genomics Center [NCGC] NIH Molecular Libraries Probe Centers Network [MLPCN] MLPCN Grant: MH095538 Assay Submitter (PI): Yves Pommier, NCI
DT40-hTDP1 cells with 20 nM Camptothecin (add 20 microL of 1 mM CPT stock in 1 L of cell culture medium) were dispensed at 400 cells/5microL/well in tissue culture treated 1536-well white wall/solid bottom assay plates (Greiner Bio-One North America, NC, U.S.A.) using a Multidrop Combi 8 channel dispenser (Thermo Fisher, Waltham, MA, USA). 23 nL compounds and controls were transferred using the pin tool (Kalypsys, San Diego, CA, USA) to the assay plates. The assay plates were then incubated at 37 masculineC for a minimum 48 hr. Three microL of Cell Titer Glo solution was added to the plates and incubated at RT in dark for 30 min. Luminescence was read using ViewLux (Perkin Elmer) with 1 sec exposure slow speed, high gain and 2x binning.
For `CC(=O)N1C[C@H]2CON(C)[C@H]2C[C@H]1c1ccccc1Br`, the “activity change, negative = growth inhibition” value was inactive: -1.47%.
For `O=c1c2ccccc2c(C=NCc2ccccn2)c(O)n1-c1ccccc1Cl`, the “activity change, negative = growth inhibition” value was inactive: -3.43%.
With `Cc1ccc(C(=O)NCC(=O)OCc2cc(=O)n3nc(C4CC4)sc3n2)cc1` the “activity change, negative = growth inhibition” value was inactive: -0.474%.
In the case of `Cc1ccc(S(=O)(=O)Nc2ccc3nc(-c4cccn4C)[nH]c3c2)cc1`, the Potency is reported as inconclusive [inhibitor, single point].
For `CC(C)CCN1C(=O)CSCC1(C)C(=O)NCc1ccccc1` (stereo unspecified), the Potency was inconclusive [inhibitor, partial curve].
In the case of `CN1C2C=C3C(C#N)=C(N)C(C#N)(C#N)[C@@H](c4cccc(F)c4)[C@@H]3C1CC2` (stereo partly specified), the Potency is reported as inconclusive [inhibitor, single point].
With `CCC1Sc2ccc(S(=O)(=O)Nc3cc(OC)cc(OC)c3)cc2NC1=O` (stereo unspecified) the Potency was active: 16.4 µM.
For `O=C(CC1Sc2ccccc2NC1=O)NNc1cc(Cl)ccc1Cl` (stereo unspecified), the “activity change, negative = growth inhibition” value was inactive: 4.22%.
In the case of `O=C(O)c1cccnc1SCc1cccc(Cl)c1`, the Potency is reported as inconclusive [inhibitor, single point].
For `Cc1nn(Cc2ccccc2Cl)c2sc(C(=O)NCc3ccc4c(c3)OCO4)cc12`, the Potency was inconclusive [inhibitor, single point].
With `C=CC[C@H](CC(=O)N[C@H](CO)Cc1ccccc1)C(=O)N[C@@H](COC(=O)[C@H](CC=C)CC(=O)OC(C)(C)C)Cc1c[nH]c2ccccc12` the Potency was active: 20.6 µM.
In the case of `CCOc1ccc(NC(=O)CSc2nncn2C)cc1`, the “activity change, negative = growth inhibition” value is reported as inactive: 0.635%.
In the case of `COc1cc(OC)cc(C(=O)NCCN2CCOCC2)c1`, the Potency is reported as inconclusive [inhibitor, full curve, poor fit].
For `O=C(Nc1cccc(-n2cnnn2)c1)C1CCCN(C(=O)Cc2cccc(Cl)c2)C1` (stereo unspecified), the Potency was inconclusive [inhibitor, single point].
For `COc1ccc(C2CC(C(F)(F)F)n3nc(C(=O)N(C)Cc4cn(C)nc4C)c(Cl)c3N2)cc1` (stereo unspecified), the Potency was inconclusive [inhibitor, single point].
In the case of `Cc1cc(C)c2cc(C(=O)N3CCC(Cc4ccccc4)CC3)[nH]c2c1`, the Potency is reported as inconclusive [inhibitor, single point].
In the case of `Cc1ccc(C)c(CSc2nnc(-c3cccs3)n2Cc2ccco2)c1`, the Potency is reported as inconclusive [inhibitor, single point].
For `COc1ccc(S(=O)(=O)Cc2ccc(C(=O)N3CCN(c4cc(C)ccc4C)CC3)o2)cc1`, the Potency was inconclusive [inhibitor, single point].
In the case of `COc1cc2nc(N(C)C)nc(N)c2cc1OC`, the Potency is reported as inconclusive [inhibitor, single point].
In the case of `O=C(CNC(=O)c1cccc([N+](=O)[O-])c1)NC1CCCc2ccccc21` (stereo unspecified), the Potency is reported as inconclusive [inhibitor, single point].
For `Clc1ccc(-c2nc3ccc(Br)cn3c2Cc2cccc(Cl)c2)cc1`, the Potency was inconclusive [inhibitor, single point].
With `COC(=O)[C@@]1(Cc2ccc(F)cc2)[C@H]2c3cc(C(=O)N(C)C)n(CCSCCO)c3C[C@H]2CN1C(=O)c1ccccc1` the Potency was inconclusive [inhibitor, partial curve, poor fit].
With `O=C(Nc1cccc(-c2nc3ccccc3[nH]2)c1)c1c(F)cccc1F` the Potency was active: 14.6 µM.
For `Cc1ccc(S(=O)(=O)N(CC(=O)Nc2cccc([N+](=O)[O-])c2)C(=O)N2CCN(C)CC2)cc1`, the “activity change, negative = growth inhibition” value was inactive: 0.941%.
In the case of `Cc1ccc2c(c1)-c1c(cnn1CC(=O)N(Cc1ccco1)C1CCCCC1)CO2`, the Potency is reported as inconclusive [inhibitor, single point].
With `COC(=O)c1ccc2nc(-c3ccc(F)cc3)c(Cc3ccc(C)cc3)n2c1` the Potency was inconclusive [inhibitor, single point].
In the case of `COc1ccccc1/C=C1\Oc2cc(OC(=O)N3CCOCC3)ccc2C1=O`, the Potency is reported as active: 14.6 µM.
With `Cc1ccn(CCC(=O)Nc2ccc(-c3ccno3)cc2)n1` the “activity change, negative = growth inhibition” value was inactive: 2.69%.
With `COc1ccccc1N(CC(O)Cn1c(C)nc2ccccc21)S(=O)(=O)c1ccccc1` (stereo unspecified) the Potency was inconclusive [inhibitor, single point].
In the case of `COc1ccc(S(=O)(=O)N2CCOCC2)c2ccccc12`, the “activity change, negative = growth inhibition” value is reported as inactive: -9.97%.
In the case of `O=C(COC(=O)c1ccccc1)NCc1ccco1`, the “activity change, negative = growth inhibition” value is reported as inactive: -8.27%.
With `COc1cc(/C=C/C(=O)NC(=O)c2ccccc2O)ccc1O` the “activity change, negative = growth inhibition” value was inactive: 2.69%.
With `Cc1ccc(S(=O)(=O)N2[C@@H](c3ccccc3)C(C(=O)O)=CC[C@H]2c2ccc(Cl)cc2)cc1` the “activity change, negative = growth inhibition” value was inactive: -1.15%.
In the case of `CC(=O)Oc1cccc(Nc2ncnc3ccccc23)c1`, the Potency is reported as inconclusive [inhibitor, single point].
In the case of `CCc1ccc(NCc2cc3cc4c(cc3n(CC(=O)Nc3ccc(OC)cc3)c2=O)OCO4)cc1`, the Potency is reported as inconclusive [inhibitor, single point].
In the case of `FC(F)(F)c1ccncc1-c1nnnn1-c1ccc(Cl)cc1`, the “activity change, negative = growth inhibition” value is reported as inactive: -19.3%.
For `CCc1nc(N2CCC3(CC2)OCCO3)c2nnn(Cc3ccccc3Cl)c2n1`, the Potency was inconclusive [inhibitor, single point].
For `CC(C)(C)OC(=O)[C@H](Cc1ccccc1)NC(=O)c1[nH]cnc1C(=O)Nc1ccc(Cl)cc1`, the Potency was inconclusive [inhibitor, single point].
For `COc1cccc(CNc2nc3cc(-c4ccc(OC)c(OC)c4)sc3c(=O)n2C)c1`, the “activity change, negative = growth inhibition” value was inactive: -7.49%.
For `N#CC1=C2SCN(c3ccccc3)CN2C(=O)CC1c1ccccc1Cl` (stereo unspecified), the Potency was inconclusive [inhibitor, single point].
With `CCN(C(=O)Cn1c(=O)n(Cc2ccccc2)c(=O)c2ccccc21)c1cccc(C)c1` the “activity change, negative = growth inhibition” value was inactive: -11%.
In the case of `COc1cc(CCCN2C(=S)NC[C@@H]2CC2CCCCC2)cc(OC)c1OC`, the Potency is reported as inconclusive [inhibitor, partial curve, poor fit].
With `COc1ccccc1CNC(=O)c1cc(-c2cc(F)ccc2OC)n[nH]1` the “activity change, negative = growth inhibition” value was inactive: -10.3%.
For `CCNC(=S)NCC`, the “activity change, negative = growth inhibition” value was inactive: 8.89%.
In the case of `Cc1ccc(N=Nc2ccc(O)c3ncccc23)cc1C`, the Potency is reported as active: 2.31 µM.
For `CCCCCCCCNC(CO)(CO)CO`, the “activity change, negative = growth inhibition” value was inactive: -25.5%.
With `COc1ccc(-n2cc(CNCc3cccnc3)c(-c3cccc(F)c3)n2)cc1` the Potency was inconclusive [inhibitor, single point].
With `Cn1c(SCC(=O)N2CCOCC2)ncc(C(=O)Nc2ccc(F)cc2)c1=O` the Potency was inconclusive [inhibitor, single point].
For `CCc1ccc(C2c3c(-c4cc(C)ccc4O)n[nH]c3C(=O)N2CCO)cc1` (stereo unspecified), the Potency was inconclusive [inhibitor, single point].
With `COc1c(S(=O)(=O)N2CCN(c3ccc(F)cc3)CC2)ccc(Cl)c1Cl` the Potency was inconclusive [inhibitor, single point].
In the case of `COc1ccc(CCn2c(C)cc(C(=O)CSc3nc(N)cc(=O)[nH]3)c2C)cc1`, the Potency is reported as active: 11.6 µM.
In the case of `C[C@H](CO)N1C[C@H](C)[C@H](CN(C)C(=O)c2ccc3ccn(C)c3c2)OCc2cnnn2CCCC1=O`, the “activity change, negative = growth inhibition” value is reported as inactive: -4.46%.
With `Cc1[nH]c2ccccc2c1C(=O)C(C)Sc1nnc(C2CC2)o1` (stereo unspecified) the “activity change, negative = growth inhibition” value was inactive: -13.7%.
For `CC1(c2nnc(-c3ccc(F)cc3)o2)CC(c2ccc(F)cc2)=NO1` (stereo unspecified), the Potency was inconclusive [inhibitor, single point].
With `CCOC(=O)C1=C(C)N=c2s/c(=C/c3ccco3)c(=O)n2C1c1cccc(OC)c1` (stereo unspecified) the Potency was inconclusive [inhibitor, single point].
In the case of `COc1cccc(CNC(=O)[C@@H]2CCCN2C(=O)[C@@H]2CCCN2C(=O)c2cccc3ccccc23)c1`, the Potency is reported as inconclusive [inhibitor, partial curve].
For `Cc1nc([N+](=O)[O-])c(Br)n1CC(=O)c1ccc(F)cc1`, the Potency was inconclusive [inhibitor, single point].
With `Cc1cc(C)c2c(=O)n3c(nc2c1)C(Cc1ccccc1)NC(=O)c1cc2ccccc2cc1-3` (stereo unspecified) the Potency was inconclusive [inhibitor, single point].
For `CCOc1ccc(OCC(=O)NCCS(=O)(=O)N2CCN(c3ccccc3)CC2)cc1`, the Potency was inconclusive [inhibitor, partial curve, poor fit].
For `N#Cc1nc(-c2cccc3ccccc23)oc1N1CCCCC1`, the “activity change, negative = growth inhibition” value was inactive: 3.37%.
In the case of `CCCSc1nc2sc3c(c2c(=O)n1-c1ccc(C)cc1)CCCC3`, the Potency is reported as inconclusive [inhibitor, single point].
For `CC1(C)C(=O)N(c2ccccc2Cl)C(=O)c2ccccc21`, the “activity change, negative = growth inhibition” value was inactive: -6.8%.
In the case of `COc1ccc(OCC(=O)Nc2cc(C)c(Cl)cc2OC)c([N+](=O)[O-])c1`, the “activity change, negative = growth inhibition” value is reported as inactive: -1.34%.
With `c1csc(-c2nn3c(Cn4nnc5ccccc54)nnc3s2)c1` the “activity change, negative = growth inhibition” value was inactive: -18.9%.
In the case of `CC1=C(c2ccc(C(C)C)cc2)S(=O)(=O)NC1=NCc1ccc(OC(C)C)cc1`, the “activity change, negative = growth inhibition” value is reported as inactive: -14%.
For `CCSc1nc2sc3c(c2c(=O)n1-c1ccc(OC)cc1)CCN(C)C3`, the Potency was inconclusive [inhibitor, single point].
For `CCN(c1ccccc1)S(=O)(=O)c1ccc(OC)c(NC(=O)C2CC(=O)N(Cc3ccccc3)C2)c1` (stereo unspecified), the Potency was inconclusive [inhibitor, single point].
With `Cc1ccc(NC(=O)CC2S/C(=N/c3nccs3)N(C)C2=O)c(C)c1` (stereo unspecified) the “activity change, negative = growth inhibition” value was inactive: -9.73%.
For `COc1ccc(NC(=O)CCCS(=O)(=O)c2nc(-c3ccccc3OC)cc(C(F)(F)F)n2)c(OC)c1`, the “activity change, negative = growth inhibition” value was inactive: -10%.
For `CCOC(=O)C1(CCOC)CCN(C(C)CCc2ccc(OC)cc2)CC1` (stereo unspecified), the “activity change, negative = growth inhibition” value was inactive: -2.06%.
With `CCn1c(NC(=O)c2ccccc2)c(-c2cccs2)c(=O)c2ccccc21` the Potency was active: 20.6 µM.
